Measured values reported in the supplement of paper PMC12217912.
This is one part of the list. Sequences were assembled here from the parent chain. Values near 0.05 are background.

B1: TEV protease; numbered along this chain (parent)
chain: MGESLFKGPRDYNPISSSICHLTNESDGHTTSLYGIGFGPFIITNKHLFRRNNGTLVVQSLHGVFKVKDTTTLQQHLVDGRDMIIIRMPKDFPPFPQKLKFREPQREERICLVTTNFQTKSMSSMVSDTSCTFPSGDGIFWKHWIQTKDGQCGSPLVSTRDGFIVGIHSASNFTNTNNYFTSVPKNFMELLTNQEAQQWVSGWRLNADSVLWGGHKVFMVKPEEPFQPVKEATQL

Variants of: B1
Experiment: raw area under fraction-flipped curve 0-4 h after induction (AUC4h, not background-subtracted), DNA-recorder readout of cleavage of the substrate (dimensionless); higher = more cleavage of the substrate by the protease variant
Conditions: temperature: 34 °C; time window: 0-4 h after rhamnose induction
Method: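 In vivo DNA recorder in E. coli TOP10(DE3) ΔrhaA at 34 °C. Each TEVp single-site mutant (parent TEVp 0) is paired with a single-site variant of the 7-mer TEVs (canonical ENLYFQ|S). The substrate sits between flexible linkers in a Bxb1-sfGFP-TEVs-SsrA fusion, so cleavage stabilises Bxb1 and speeds flipping of a recombination array, read by NGS. The value is the raw area under the fraction-flipped curve over 0-4 h after rhamnose induction (AUC4h), with ≥20 reads per time point. It is not background-subtracted; inactive controls average about 0.047.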
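Also: Bxb1 expression induced with 0.2% (w/v) L-rhamnose at OD600 near 0.5, cultures sampled hourly, flipped fraction per protease–substrate barcode pair counted by paired-end Illumina sequencing.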

| Variant | area with substrate ENLYFAS | area with substrate ENLYFCS | area with substrate ENLYFDS | area with substrate ENLYFES | area with substrate ENLYFFS | area with substrate ENLYFHS | area with substrate ENLYFIS | area with substrate ENLYFKS | area with substrate ENLYFLS | area with substrate ENLYFMS | area with substrate ENLYFNS | area with substrate ENLYFPS | area with substrate ENLYFRS | area with substrate ENLYFSS | area with substrate ENLYFTS | area with substrate ENLYFVS | area with substrate ENLYFWS | area with substrate ENLYFYS | area with substrate ENLYFGS |
| --- | --- | --- | --- | --- | --- | --- | --- | --- | --- | --- | --- | --- | --- | --- | --- | --- | --- | --- | --- |
| S60V | 0.0573 | 0.0505 | 0.0533 | 0.0604 | 0.0619 | 0.0316 | 0.0454 | 0.0471 | 0.0617 | 0.0592 | 0.0573 | 0.0599 | 0.0482 | 0.0565 | 0.0504 | 0.0484 | 0.0467 | 0.0517 |  |
| S60F | 0.0664 |  |  | 0.0704 | 0.0522 | 0.058 | 0.0477 | 0.057 | 0.065 | 0.061 | 0.0756 | 0.061 |  |  | 0.063 | 0.0711 | 0.0552 |  | 0.068 |
| V78A | 0.0534 | 0.0574 | 0.0653 | 0.051 | 0.0744 | 0.0508 | 0.0602 | 0.0642 | 0.044 | 0.0602 | 0.0577 | 0.0643 | 0.0697 |  | 0.0767 | 0.0532 | 0.0573 | 0.0618 |  |
| Q74G | 0.0818 | 0.0601 |  | 0.066 |  | 0.0535 | 0.0637 | 0.0684 | 0.0802 | 0.0878 | 0.0663 | 0.0517 | 0.0631 | 0.0626 | 0.0557 | 0.0486 | 0.0411 | 0.0591 | 0.0337 |
| Q74D | 0.0747 | 0.0532 | 0.0474 | 0.0709 | 0.0577 | 0.0686 | 0.0635 | 0.0673 | 0.0536 | 0.0565 | 0.064 | 0.0644 | 0.0572 |  | 0.0658 |  |  | 0.0563 |  |
| Q74H | 0.0634 | 0.0665 |  |  |  | 0.0564 | 0.0659 |  |  | 0.0761 | 0.0681 | 0.0373 | 0.0687 |  |  | 0.0524 |  | 0.0593 |  |
| K100T | 0.0617 | 0.0494 |  | 0.064 | 0.065 |  | 0.0308 |  |  | 0.0571 | 0.0633 | 0.0787 |  | 0.0501 |  | 0.0637 |  | 0.0437 |  |
| T55E | 0.0681 | 0.0569 | 0.0707 | 0.0633 | 0.0507 | 0.0551 | 0.0476 |  |  | 0.0722 |  | 0.0549 | 0.052 |  | 0.0371 | 0.0619 | 0.0719 |  | 0.0566 |
| K68F | 0.062 |  |  |  | 0.0476 | 0.0716 | 0.0634 |  |  |  |  | 0.0595 |  |  |  |  |  |  |  |
| T71A | 0.0597 | 0.0567 |  | 0.0646 | 0.0657 |  | 0.0593 | 0.0638 | 0.0775 | 0.0611 | 0.0527 | 0.059 | 0.0416 | 0.0638 | 0.0702 | 0.0568 | 0.0456 | 0.0604 | 0.0721 |
| T71F | 0.0653 | 0.0553 |  | 0.0607 | 0.0717 | 0.0516 | 0.0535 | 0.0594 | 0.0482 | 0.0608 | 0.0724 | 0.0546 | 0.0556 | 0.0515 | 0.0559 | 0.0526 |  | 0.064 |  |
| K66F | 0.0597 | 0.0573 | 0.0459 | 0.0608 | 0.0551 | 0.0638 | 0.0594 | 0.058 |  | 0.099 | 0.0597 | 0.0577 | 0.0632 | 0.0594 | 0.0557 |  | 0.0575 | 0.0525 | 0.0609 |
